Measurements taken from the supplement of paper PMC12217912.
The other results are listed elsewhere or left out. Sequences were assembled here from the parent chain. Values near 0.05 are background.

B1: TEV protease; numbered along this chain (parent)
chain: MGESLFKGPRDYNPISSSICHLTNESDGHTTSLYGIGFGPFIITNKHLFRRNNGTLVVQSLHGVFKVKDTTTLQQHLVDGRDMIIIRMPKDFPPFPQKLKFREPQREERICLVTTNFQTKSMSSMVSDTSCTFPSGDGIFWKHWIQTKDGQCGSPLVSTRDGFIVGIHSASNFTNTNNYFTSVPKNFMELLTNQEAQQWVSGWRLNADSVLWGGHKVFMVKPEEPFQPVKEATQL

Variants of: B1
Test: raw area under fraction-flipped curve 0-4 h after induction (AUC4h, not background-subtracted), DNA-recorder readout of cleavage of the substrate (dimensionless); higher = more cleavage of the substrate by the protease variant
Settings: temperature: 34 °C; time window: 0-4 h after rhamnose induction
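Further: Bxb1 expression induced with 0.2% (w/v) L-rhamnose at OD600 near 0.5, cultures sampled hourly, flipped fraction per protease–substrate barcode pair counted by paired-end Illumina sequencing.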

Variant	area with substrate CNLYFQS	area with substrate INLYFQS	area with substrate LNLYFQS	area with substrate MNLYFQS	area with substrate PNLYFQS	area with substrate SNLYFQS	area with substrate VNLYFQS	area with substrate YNLYFQS	area with substrate FNLYFQS	area with substrate GNLYFQS	area with substrate HNLYFQS	area with substrate KNLYFQS	area with substrate NNLYFQS	area with substrate TNLYFQS	area with substrate WNLYFQS	area with substrate RNLYFQS	area with substrate QNLYFQS
S171Q	0.0581	0.0604	0.0672	0.0548	0.0712	0.0442	0.0641	0.111	–	–	–	–	–	–	–	–	–
N172G	0.0538	–	0.0614	0.0433	0.0705	–	–	–	0.0552	0.0583	0.0531	0.0581	0.0515	0.0409	0.0556	–	–
N172I	0.0723	0.0719	0.0557	0.0368	–	–	0.0767	0.0475	0.0468	–	0.0508	–	0.0523	0.0547	0.0585	–	–
N172T	0.0682	0.0616	0.0674	0.0593	–	–	0.0594	0.0593	–	–	0.0597	–	–	–	–	–	–
F173C	0.0634	0.0465	–	–	0.0679	–	–	0.0427	0.0566	–	0.0567	0.0654	0.0621	0.0645	0.0601	0.0563	–
F173N	0.0628	–	–	–	–	–	–	–	0.0553	–	0.0724	–	–	0.0649	–	0.0743	0.0416
F173Y	0.0631	0.0574	0.0621	–	0.0556	0.0585	–	–	–	–	0.0623	0.0772	–	–	0.0665	–	–
T174N	0.061	0.0538	0.0606	0.0634	0.067	–	–	0.0677	0.0763	0.0641	0.076	–	0.0571	0.0645	–	–	–
T174Q	0.0678	–	–	0.0593	0.0795	–	0.0484	0.047	0.0743	0.0838	0.0651	–	–	0.0404	–	–	–
T174W	0.0655	–	0.071	0.0704	0.0348	–	0.0514	0.0607	0.0809	–	0.0591	–	0.0611	0.0661	0.0493	–	–
N175H	0.0243	0.0651	–	–	0.0582	–	–	–	–	–	0.0597	–	0.0875	–	–	–	–
N175I	0.0614	0.0557	–	–	0.0516	–	0.0784	0.0676	0.0549	–	0.0731	0.0721	0.0562	0.0607	0.0528	–	–
N177D	0.076	–	0.073	–	–	0.0679	0.0751	0.041	–	–	0.0877	0.0417	0.0664	0.0791	0.0642	–	–
N178D	0.0487	–	0.0397	0.0566	–	–	–	–	–	–	0.0667	–	–	–	0.069	–	–
N178E	0.0496	–	0.0579	–	0.0382	–	–	–	–	–	0.05	–	–	0.0546	0.0564	–	–
N178G	0.069	0.105	–	–	–	–	–	0.063	–	0.0915	–	–	–	–	0.0756	–	–
N178H	0.0568	–	0.0592	0.0619	0.0682	–	0.0618	0.0656	–	–	0.0605	–	–	0.0641	0.0442	0.0552	–
N178K	0.0928	0.0275	0.0637	–	0.0949	–	–	–	0.0507	–	0.0618	–	0.0544	–	0.0562	–	–
Y179C	0.0582	0.0515	–	–	–	–	–	0.0508	0.0653	–	0.0691	0.0595	–	0.0637	0.0474	–	–

Variant	area with substrate CNLYFQS	area with substrate INLYFQS	area with substrate LNLYFQS	area with substrate MNLYFQS	area with substrate PNLYFQS	area with substrate SNLYFQS	area with substrate VNLYFQS	area with substrate YNLYFQS	area with substrate FNLYFQS	area with substrate GNLYFQS	area with substrate HNLYFQS	area with substrate KNLYFQS	area with substrate NNLYFQS	area with substrate TNLYFQS	area with substrate WNLYFQS	area with substrate RNLYFQS	area with substrate QNLYFQS
Y179F	0.0603	–	0.0676	–	–	–	–	0.0736	0.0669	0.0648	–	–	–	0.0325	–	–	–
F180K	0.0592	0.0669	–	0.0322	0.043	0.0575	0.0478	0.0546	0.0871	0.057	0.0471	–	0.0545	0.0446	0.0544	–	–
F180M	0.0574	–	–	–	–	–	0.0625	–	–	–	0.0726	0.0749	–	–	0.0565	–	–
S182I	0.0441	–	–	0.0625	0.0675	–	–	0.0578	–	0.0593	0.0591	–	0.0757	0.0557	0.0544	0.078	–
S182P	0.0518	0.0542	0.0491	0.068	0.0658	–	–	–	0.0514	–	0.0724	–	0.0561	–	0.0651	–	–
S182Y	0.0502	0.0539	–	–	0.0594	–	–	–	0.0536	–	–	0.0539	0.0544	0.0467	0.0529	–	–
V183Q	0.0476	–	0.0536	–	–	–	–	–	–	–	0.0661	0.0894	–	–	0.0491	0.0599	–
K185H	0.0565	–	0.0645	–	0.0596	–	–	–	0.0656	–	0.0797	–	–	0.0585	0.0569	0.0667	–
N186D	0.073	0.0609	0.0655	0.0581	0.0471	–	–	–	–	–	0.0647	0.0768	0.0635	0.0667	0.0516	–	–
N186G	0.0588	–	–	–	–	–	–	–	–	0.0664	0.068	–	–	–	0.0564	–	0.0438
M188A	0.0617	0.0432	–	–	0.0709	–	0.0953	0.0531	0.0459	0.0768	0.0556	0.0615	0.072	0.0631	0.0641	–	–
E189F	0.0584	0.0594	0.0634	0.0763	–	0.0747	0.0488	–	–	–	0.0595	0.0538	0.0337	0.0499	0.0613	0.0624	–
L190A	0.0622	0.057	0.0624	0.0381	0.0546	–	0.0688	0.0774	–	0.104	0.0575	0.0579	–	0.0615	0.0606	0.0518	–
L191E	0.0602	0.0565	–	0.0613	0.0621	–	0.0481	–	–	0.0568	0.0504	–	0.0614	0.0667	0.0346	–	–
L191S	0.0553	0.0502	–	0.0443	–	–	–	0.0347	0.0528	0.08	–	–	–	–	0.0431	–	–
N193L	0.0812	–	–	–	0.0573	–	0.0985	0.0529	–	0.0447	–	0.0501	–	0.0611	0.058	–	0.059
Q194Y	0.0683	–	0.0603	–	0.0606	–	–	–	–	0.0739	0.0404	–	–	0.0733	–	–	–
A196S	0.041	0.0715	0.0621	0.0735	0.0648	0.0646	0.0067	–	–	0.0641	0.0506	0.0576	0.0566	0.0751	0.0605	–	0.0612
Q197A	0.0792	–	0.0551	0.0546	–	0.0523	–	0.0421	–	–	0.0635	–	0.0612	0.0609	0.0494	–	0.0623
